In PMC8710044:

Key:
[1] = substrate: Cc1ccc(Cl)c(Nc2ccccc2C(=O)O)c1Cl; test: cells, lysate or membranes named; settings: 95% CI in parentheses, pH 7.4
[2] = substrate: Cc1c(Cl)cccc1Nc1ccccc1C(=O)O; test: cells, lysate or membranes named; settings: 95% CI in parentheses, pH 7.4
[3] = substrate: Cc1ccc(Nc2c(F)cccc2Cl)c(CC(=O)O)c1; test: cells, lysate or membranes named; settings: 95% CI in parentheses, pH 7.4
[4] = substrate: O=C(O)COC(=O)Cc1ccccc1Nc1c(Cl)cccc1Cl; test: Steady-state kinetics of overall NSAID metabolism; assay type: in vitro ADME, human; settings: other: overall metabolism (depletion) by CYP3A4; 95% CI in parentheses; pH 7.4
[5] = substrate: Cc1cccc(Nc2ccccc2C(=O)O)c1C; test: Steady-state kinetics of overall NSAID metabolism; assay type: in vitro ADME, human; settings: other: overall metabolism (depletion) by CYP3A4; 95% CI in parentheses; pH 7.4
[6] = substrate: O=C(O)c1ccccc1Nc1cccc(C(F)(F)F)c1; test: Steady-state kinetics of overall NSAID metabolism; assay type: in vitro ADME, human; settings: other: overall metabolism (depletion) by CYP3A4; 95% CI in parentheses; pH 7.4
[7] = substrate: O=C(O)COC(=O)Cc1ccccc1Nc1c(Cl)cccc1Cl; test: Steady-state bioactivation kinetics; assay type: in vitro ADME, human; settings: other: CYP3A4; metabolite M6, path 3; 95% CI in parentheses; pH 7.4
[8] = substrate: Cc1cccc(Nc2ccccc2C(=O)O)c1C; test: Steady-state bioactivation kinetics; assay type: in vitro ADME, human; settings: other: CYP3A4, path 1, 2, 95% CI in parentheses, pH 7.4
[9] = substrate: O=C(O)c1ccccc1Nc1cccc(C(F)(F)F)c1; test: Steady-state bioactivation kinetics; assay type: in vitro ADME, human; settings: other: CYP3A4; metabolite M2/M4, path 1, 2; 95% CI in parentheses; pH 7.4
[10] = other: CYP3A4, metabolite M6, path 3
[11] = other: overall metabolism (depletion) by CYP3A4
[12] = other: CYP3A4, metabolite M2/M4a, path 1, 2
[13] = other: CYP3A4, metabolite M2/M4b, path 1, 2
[14] = other: CYP3A4, metabolite M6a, path 3

B1: CYP3A4 (Homo sapiens) (protein)
chain: MALIPDLAMETWLLLAVSLVLLYLYGTHSHGLFKKLGIPGPTPLPFLGNILSYHKGFCMFDMECHKKYGKVWGFYDGQQPVLAITDPDMIKTVLVKECYSVFTNRRPFGPVGFMKSAISIAEDEEWKRLRSLLSPTFTSGKLKEMVPIIAQYGDVLVRNLRREAETGKPVTLKDVFGAYSMDVITSTSFGVNIDSLNNPQDPFVENTKKLLRFDFLDPFFLSITVFPFLIPILEVLNICVFPREVTNFLRKSVKRMKESRLEDTQKHRVDFLQLMIDSQNSKETESHKALSDLELVAQSIIFIFAGYETTSSVLSFIMYELATHPDVQQKLQEEIDAVLPNKAPPTYDTVLQMEYLDMVVNETLRLFPIAMRLERVCKKDVEINGMFIPKGVVVMIPSYALHRDPKYWTEPEKFLPERFSKKNKDNIDPYIYTPFGSGPRNCIGMRFALMNMKLALIRVLQNFSFKPCKETQIPLKLSLGGLLQPEKPVVLKVESRDGTVSGA
- Km [1, 10]: 76.8 (63.5–92.8) μM
- kcat [1, 10]: 49.8 (46.8–53.2) pmol/min/nmol protein
- Km [1, 11]: 260 (210–340) μM
- kcat [1, 11]: 10700 (9550–12200) pmol/min/nmol protein
- Km [2, 12]: 11.9 (8.6–16.2) μM
- kcat [2, 12]: 4.3 (4.1–4.5) pmol/min/nmol protein
- Km [2, 13]: 28.7 (24.2–34.0) μM
- kcat [2, 13]: 20.0 (19.2–20.9) pmol/min/nmol protein
- Km [2, 11]: 170 (140–210) μM
- kcat [2, 11]: 6340 (5840–6910) pmol/min/nmol protein
- Km [3, 14]: 35.5 (31.4–40.2) μM
- kcat [3, 14]: 5.2 (5.1–5.4) pmol/min/nmol protein
- Km [3, 11]: 140 (110–170) μM
- kcat [3, 11]: 4440 (4060–4910) pmol/min/nmol protein
- Km [4]: 260 (210–320) μM
- kcat [4]: 7720 (7000–8610) pmol/min/nmol protein
- Km [5]: 89.7 (73–110) μM
- kcat [5]: 3930 (3650–4250) pmol/min/nmol protein
- Km [6]: 150 (130–170) μM
- kcat [6]: 6120 (5770–6520) pmol/min/nmol protein
- Km [7]: 90.5 (75.5–108.5) μM
- kcat [7]: 9.9 (9.3–10.6) pmol/min/nmol protein
- Km ([8]; metabolite M2/M4a): 91.3 (79.5–104.9) μM
- kcat ([8]; metabolite M2/M4a): 6.7 (6.4–7.1) pmol/min/nmol protein
- Km ([8]; metabolite M2/M4b): 37.9 (32.1–44.6) μM
- kcat ([8]; metabolite M2/M4b): 4.1 (3.9–4.2) pmol/min/nmol protein
- Km [9]: 38.8 (29.7–50.0) μM
- kcat [9]: 40.3 (37.6–43.3) pmol/min/nmol protein
